# Paper PMC12136788
# The list shows a part of the results.
# B1: chr10:119917856:119917957:+|CDS|ENSG00000107651|unk|total|mutant (ssRNA)
# RNA: GGGAGUUCUACAGUCCGACGAUCUAAGAAAAUCACUUUGCCAAGUAUUGGUCGAUUUCGUCACUUUACCAAUGAAACUUUGCCCGAUAUUUUAUUUUAUAACAGCCCCACCUACUGUCAGACAAUUGUGGAAAAAGCCGGAAUCAACAGAGGAUUGAGCAUCA
# B2: ENSG00000072803:stop:overlap|stop_codon|ENSG00000072803|stop_codon|NA|stop_codon (ssRNA)
# RNA: GGGAGUUCUACAGUCCGACGAUCCUGGAUACAGUAAACGGAAAGAAUCUUGGAAGAUGCUUGACUGCUGUCUUUUCUCAGACUAGUCUGAAAGGGAAAACCCCCAUUCAUUCUGGAUUGGUGGAUCUGAAGUACAAAAUAUUUCAACAGAGGAUUGAGCAUCA
# B3: chr11:18297563:18297669:-|CDS|ENSG00000110756|unk|total|mutant (ssRNA)
# RNA: GGGAGUUCUACAGUCCGACGAUCGAUCUAAUUUCUCAACUGGAAGAAUUGAUCUUAAAAUUUGAACCUUUGGAUUCAGCUUGCCGCAGCCGAAGAAGCUCCAUUUCAUCACAUGUAAGUAUUCUCACCUUUAAAGGAUUUUGUCAACAGAGGAUUGAGCAUCA
# B4: chr1:22530103:22530204:+|3pUTR|ENSG00000184677|msi1|total|mutant (ssRNA)
# RNA: GGGAGUUCUACAGUCCGACGAUCCAUGUACCGAGUGGGCAGGCGGUUCCAGGGAGACAAGCAGCAUGUUAUUAAAUUGGGCCCCGGCAGUUGGACGAUAAUGGAGAAAAAGCAGGGAUGCUAUAAUGAGUCCUCCCCAAGGGUCAACAGAGGAUUGAGCAUCA
# B5: chr15:49134392:49134529:-|CDS|ENSG00000166200|unk|FALSE|unique (ssRNA)
# RNA: GGGAGUUCUACAGUCCGACGAUCAUAUUUGCUUUCCUAGACUGAUGAUGGAGAAGAUGAUCUGAAAAAAGGUACACAGUUAUUAGAAAUAUAUGCUUUGGAAAUUCAAAUGUACACAGCACAGAAAAAUAACAAAAAACUUAACAACAGAGGAUUGAGCAUCA
# B6: ENSG00000087269:stop:overlap|stop_codon|ENSG00000087269|stop_codon|NA|stop_codon (ssRNA)
# RNA: GGGAGUUCUACAGUCCGACGAUCGGCUGGCUGGUCUCGAAUUCCCGACCUCAGGUAAUCCACCUGCCUUGGCCCCCCAAUUAUAGGUGUGAGCCACAGCACCCAGCCAAAAAAGUAAUUUUUUUUAGAGUAAUAAUGCUAUAACAACAGAGGAUUGAGCAUCA
# B7: chr7:138585310:138585366:+|3pUTR|ENSG00000122779|msi1_unk|total|mutant (ssRNA)
# RNA: GGGAGUUCUACAGUCCGACGAUCCUCUUUAAGUUGAAAAGUAAAAAAUAUAUGUGGUUUGGAUGUGUGCUUUAAUUCAGCUUCCGAAAUUAAUACCACUACCCGUGAAUUAUAUGGCCUGACAAUAUGAAUCCGGUGUACUGUCAACAGAGGAUUGAGCAUCA
# B8: chr2:61188134:61188237:-|CDS|ENSG00000115464|unk|total|mutant (ssRNA)
# RNA: GGGAGUUCUACAGUCCGACGAUCAUCUCUCAGUUGUGGCCAUUCCAGAGGACUCUUCCGUCAUAUGCAGCAACAUGACAUUUCCGAUACCCUGUGCCGGACCAUUGAAUCUACAAUCCAUGUCGUCACAAGGAUAUCUGGCAACAACAGAGGAUUGAGCAUCA
# B9: chr19:13097725:13097826:+|3pUTR|ENSG00000008441|msi1|total|mutant (ssRNA)
# RNA: GGGAGUUCUACAGUCCGACGAUCUGAGCCAGACGCCAACUUGACCCUCACCAGCAUUAUCAGGAGCGCGCUCAGCAAGUUGGCCGUUUCCUCCCCCCUUUCCCGGCGCCCCUCCCGCCCCCAUUCAACAUCUCUCAUCCUAUCCAACAGAGGAUUGAGCAUCA
# B10: chr10:68442948:68443070:-|CDS|ENSG00000138346|unk|FALSE|unique (ssRNA)
# RNA: GGGAGUUCUACAGUCCGACGAUCCCCAAUUGUGAUGCUGCCCAAAAUAGAAGAAGAAACCCAGCAUCUGAAGCAAACACACUUAGAAUAUUUCAGCCUUUGGUGUCUAAUGUUAACCCUGGAGUCACAAUCGAAGGAUAAUAACAACAGAGGAUUGAGCAUCA
# B11: chr3:52836218:52836623:-|three_prime_utr|ENSG00000213533|control|control|control (ssRNA)
# RNA: GGGAGUUCUACAGUCCGACGAUCAGCAACUGCCCAGUGAAAAGCCAAACAUGCUCUUGCCAUGUCCAUCUCCACUUCUUCGCUAGUGAGAAUUAAAGCAAGUCCGUCUCUGAGGAGGACAUCGUGUUGGGGAGGUAGAGUAUACAACAGAGGAUUGAGCAUCA
# B12: chr1:225491636:225491737:-|3pUTR|ENSG00000154380|msi1|total|mutant (ssRNA)
# RNA: GGGAGUUCUACAGUCCGACGAUCGUACUUUGAAUUCCACCGGAAAAAGCACUCAGAAGAAAAAGUCUACAUUGGCCCGUGUUCCGAUUGAGAGUUAAUUUUCCCAUCAAGUCCAAAAGUUUCCAUCCAAGUCUACCGAAACUGCAACAGAGGAUUGAGCAUCA
# B13: chr7:44624349:44624495:+|CDS|ENSG00000105953|unk|total|mutant (ssRNA)
# RNA: GGGAGUUCUACAGUCCGACGAUCAGGCCAUUGACGGCUUCCCAGACUGUUAAGACAUUUUCACAAAACAGACCAGCAGCAGCCCGGACAUUUCAACAGAUUCGGUGCUAUUCUGCACCUGUUGCUGCUGAGCCCUUUCUCAGUCAACAGAGGAUUGAGCAUCA
# B14: chr1:24840999:24841100:+|3pUTR|ENSG00000169504|msi1|total|mutant (ssRNA)
# RNA: GGGAGUUCUACAGUCCGACGAUCGCUACUCCUUCCUGCCGAGCAGAAAUUGUAUUUUGCACGAACAUGCAGUUAUUGAAGAUCCGGAUCAAGGACCGACAAGGUACCGCCGUUAUCUUAAAAUAUACACUCCUAAGCAGUAUUCAACAGAGGAUUGAGCAUCA
# B15: chr1:10178627:10178729:+|CDS|ENSG00000130939|unk|FALSE|unique (ssRNA)
# RNA: GGGAGUUCUACAGUCCGACGAUCUAAGGAAUUGUUUGAAGAAGUUAUUUCAAAGAUGCGGAAGGCAGGGAUCAAAUCCACAAUAGCAAUAGAAAAAUUUAAGCUGCUCGCCGAGAAAGUGGAGGAGAUAGUGGCCAAGAACGCCAACAGAGGAUUGAGCAUCA
# B16: chr3:10940499:10940600:+|3pUTR|ENSG00000132164|unk|FALSE|unique (ssRNA)
# RNA: GGGAGUUCUACAGUCCGACGAUCGGGGAGGGCAAUGUGGGGGCAGGGGAACAUGUCAUUGUGAUGACUUUUUUGAUAUUCAUUAGAAACAAUACAUCCUUUCUGAGAUAUUUACAGUAUUAUUAAAAAAUGAAAAAGGUUGUACAACAGAGGAUUGAGCAUCA
# B17: chr1:62648186:62648303:-|CDS|ENSG00000116641|unk|FALSE|unique (ssRNA)
# RNA: GGGAGUUCUACAGUCCGACGAUCGAUGACCUUAAAAGACGUUCAAUGUCAAUAGAUGAUACCCCAAGGGGUAGCUGGGCCUGUAGUAUCUUUGACUUGAAAAAUUCACUUCCUGAUGCUUUGCUUCCCAAUUUACUUGAUCGACAACAGAGGAUUGAGCAUCA
# B18: ENSG00000164929:stop:overlap|stop_codon|ENSG00000164929|stop_codon|NA|stop_codon (ssRNA)
# RNA: GGGAGUUCUACAGUCCGACGAUCUAACAGAUAGCAUCCAACAGAUGGACAGAAGUCGAAGAAUCACAAAGAACUGUGUCAACUAGCAGAGAGUCCAAGCAGAAGGGCAGAUGGACUUCUUCAGUGUCCUUCACGGCACUGGAUCAACAGAGGAUUGAGCAUCA
# B19: chr6:105098323:105098438:-|3pUTR|ENSG00000112276|msi1|total|mutant (ssRNA)
# RNA: GGGAGUUCUACAGUCCGACGAUCUAUCAGUGUCUCAAUGUGAAGAUUGUAACCUCAAGAUCCGGAAUCUUAAAAGAGCCACUCCGCCUGAAUGGGAAACGUGAGACUAUUUUUAAACACACACCUCUAAGGAAGAAGCCUCCCCAACAGAGGAUUGAGCAUCA
# B20: chr3:97755980:97756081:+|3pUTR|ENSG00000080224|unk|FALSE|unique (ssRNA)
# RNA: GGGAGUUCUACAGUCCGACGAUCUAAUUAAAAAUCUCUUUCCUACCUUUAGUAAUUUGUAGGAUGAACUGUAUGCAUUUAGAUAGAAAUUGCUUUUGUUAAAUUUACAUUUAAACACAUCUUCAUUCACUUAGAGAAGCCAUACAACAGAGGAUUGAGCAUCA
# B21: chr14:75134619:75134720:-|3pUTR|ENSG00000170348|msi1|FALSE|unique (ssRNA)
# RNA: GGGAGUUCUACAGUCCGACGAUCAACAAGUCAAUGAGGGACUUCUUUUUAAUUUGGUAGGAUUUUGACUGGUUUUGCAACAAUAGGUCUAUUAUUAGAGUCACCUAUGACAAAAAAUAGGGGUUACCUAGAUAAUGCCAAAGUCAACAGAGGAUUGAGCAUCA
# B22: chr8:143915506:143915607:-|3pUTR|ENSG00000178209|msi1|FALSE|unique (ssRNA)
# RNA: GGGAGUUCUACAGUCCGACGAUCCCCCACACUCACUCCUGAGACCCCUGGCCUCCGGCGUCAGCCUCCAGCCUCUGUUCCCCUAGUAAGUGCCUUCCAUGUCGGCCUCUAACCCCAGGCCCCGAGGACCCAGACCCAGUGGGGCAACAGAGGAUUGAGCAUCA
# Molecular target: MSI1 full-length (mouse, UniProt Q61474 1-362)
# Assay: nsRBNS (natural sequence RNA bind-n-seq); RBNS binding buffer (assumed for nsRBNS): 25 mM Tris pH 7.5, 150 mM KCl, 3 mM MgCl2, 0.01% Triton X-100, 500 ug/ml BSA, 20 U/ml SUPERase-In, 4 C; UNK is unkempt and MSI1 is Musashi-1; names of the RNAs are library labels; protein concentration not given here; high values mean tight binding
# Sequence of UniProt Q61474 (Q61474 whole entry): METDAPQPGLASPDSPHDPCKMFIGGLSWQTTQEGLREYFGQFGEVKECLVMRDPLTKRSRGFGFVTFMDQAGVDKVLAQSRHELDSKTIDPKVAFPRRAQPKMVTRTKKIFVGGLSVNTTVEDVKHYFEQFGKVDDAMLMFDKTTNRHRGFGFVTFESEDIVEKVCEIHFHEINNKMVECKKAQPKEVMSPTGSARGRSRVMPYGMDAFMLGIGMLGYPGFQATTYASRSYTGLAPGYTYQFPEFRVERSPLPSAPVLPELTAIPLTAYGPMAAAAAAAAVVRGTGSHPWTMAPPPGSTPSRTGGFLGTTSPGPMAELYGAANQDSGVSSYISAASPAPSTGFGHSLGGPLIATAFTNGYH
row,Binder,binding signal [enrichment R]
1,B1,0.52
2,B2,0.904
3,B3,0.359
4,B4,0.627
5,B5,0.819
6,B6,1.04
7,B7,0.738
8,B8,0.343
9,B9,0.765
10,B10,7.91
11,B11,0.577
12,B12,0.375
13,B13,0.283
14,B14,0.487
15,B15,3.47
16,B16,2.63
17,B17,0.378
18,B18,0.309
19,B19,0.338
20,B20,19.4
21,B21,5.04
22,B22,0.558
